Source: PubChem BioAssay AID588795 (National Center for Advancing Translational Sciences (NCATS), 2011)
The whole screen tested about 390,000 compounds, of which about 1,400 (0.36%) were called active. The shares of active, inactive and inconclusive entries below differ from those in the screen. The call rests on the fitted dose curve; in most records, active means well fitted inhibition curve with a large enough effect; inconclusive means small, poorly fitted or top-dose-only effect; inactive means no such curve, though single readings can be large or run the other way. Where the call is inconclusive, the potency comes from a doubtful curve fit.

Biological target: Flap endonuclease 1 (Homo sapiens) (UniProt P39748)
Test: qHTS Assay for the Inhibitors of Human Flap endonuclease 1 (FEN1). Further: nearly all actives have a fitted effect of over 65% in size.
Conditions: Recombinant FEN1 flap cleavage, fluorescence, 15 min; series mostly up to 114 µM; activity change, negative = inhibition: at the top concentration
In short: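 FEN1 at 10 nM, compound pretreatment for 15 min (room temperature), 50 nM final substrate to initiate; endpoint reads at 0 and 15 min; DMSO-only plates used as vehicle background.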
On the % scale 0 is the no-effect control and ±100 the full control effect; potency means the concentration at half of the fitted maximal effect; tags describe the fitted curve by direction and shape.

Chain of UniProt P39748 (P39748 whole entry, looked up): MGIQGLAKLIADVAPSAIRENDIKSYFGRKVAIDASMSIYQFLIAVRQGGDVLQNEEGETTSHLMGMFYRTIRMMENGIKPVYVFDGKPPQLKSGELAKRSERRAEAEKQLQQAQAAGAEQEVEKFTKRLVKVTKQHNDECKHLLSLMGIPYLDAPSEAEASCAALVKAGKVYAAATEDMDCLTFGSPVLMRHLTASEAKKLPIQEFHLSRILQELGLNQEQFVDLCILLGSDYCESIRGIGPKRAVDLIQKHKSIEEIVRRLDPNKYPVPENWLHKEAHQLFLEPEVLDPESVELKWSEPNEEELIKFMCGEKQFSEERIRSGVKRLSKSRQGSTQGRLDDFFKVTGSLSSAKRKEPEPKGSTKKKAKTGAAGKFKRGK

Compound	activity change, negative = inhibition	Potency
CC1CCCCC1NC(=O)CSc1ccc([N+](=O)[O-])cc1 (stereo not drawn)	inactive: -9.2%	–
O=C(OC(C(=O)Nc1ccc(Cl)c(C(F)(F)F)c1)c1ccccc1)C1=COCCO1 (stereo not drawn)	–	inconclusive: 79.4 µM [inhibitor, partial curve, poor fit]
O=C(Cc1ccc(F)cc1)N1CCC(c2nc3c(nnn3Cc3ccc(Cl)cc3)c(=O)[nH]2)CC1	–	inconclusive: 79.4 µM [inhibitor, partial curve, poor fit]
CCOC(=O)c1c(C)c(C(=O)NCCc2ccc(OC)cc2)c(C)n1C	inactive: -4.99%	–
Cc1cccc(-c2n[nH]c(=S)n2/N=C/C=C/c2ccco2)c1	–	inconclusive: 89.1 µM [inhibitor, single point]
O=C(O)c1ccc2c(c1)C(=O)/C(=C/c1ccccc1)C2=O	–	active: 39.8 µM
COc1ccccc1-[n+]1c(C)cc(/C=C2\Sc3ccccc3N2C)cc1C	–	inconclusive: 14.1 µM [inhibitor, full curve, poor fit]
CCc1ccccc1NC(=O)c1cc(S(=O)(=O)NCCc2ccc(OC)c(OC)c2)ccc1F	inactive: 5.16%	–
O=C(CNC(=O)C12CC3CC(CC(C3)C1)C2)N/N=C\c1ccco1	inactive: 5.12%	–
Cc1cc2nc3ccc(=[N+](C)C)cc-3sc2cc1N	–	active: 22.4 µM
CCCCCCc1ccc(N2C[C@H](CCCCC)[C@@H](CC(=O)NCc3ccc(OC)cc3)C2=O)cc1	–	inconclusive: 56.2 µM [inhibitor, partial curve]
CCN1C/C(=C/c2ccc(N3CCOCC3)cc2)C(=O)/C(=C/c2ccc(N3CCOCC3)cc2)C1	–	active: 79.4 µM
Cc1cc(C)c2c(=O)n(CC(=O)NC3CCCC3)sc2n1	–	inconclusive: 89.1 µM [inhibitor, single point]
Cc1cc(=O)n2c3ccccc3n(CC(O)CN3CCCCC3)c2c1C#N (stereo not drawn)	–	inconclusive: 79.4 µM [inhibitor, single point]
Cc1ccc(NC(=O)CSc2nc3ccccc3c3nc(CCn4c(C)nc5ccccc54)nn23)cc1F	inactive: -18.5%	–
Cc1c(Cl)cccc1NC(=O)CCS(=O)(=O)c1ccc(Br)s1	inactive: 19.8%	–
CC(C)(C)C1CCc2onc(C(=O)Nc3sc4c(c3C(N)=O)CCCC4)c2C1 (stereo not drawn)	–	inconclusive: 79.4 µM [inhibitor, partial curve]
Cc1ccc(-n2ccc(=O)c(C(=O)Nc3ccc(S(=O)(=O)Nc4nccc(C)n4)cc3)n2)cc1	inactive: -15.6%	–
O=C(Oc1ccc(-c2nnco2)cc1)c1ccco1	inactive: -16.5%	–
Cc1cc(OCC(=O)Nc2sc3c(c2C(N)=O)CCCC3)ccc1C(C)C	–	inconclusive: 100 µM [inhibitor, single point]
COc1ccc(N=CC2=C(O)CC(c3ccccc3)CC2=O)c(OC)c1 (stereo not drawn)	–	inconclusive: 89.1 µM [inhibitor, partial curve, poor fit]
Cc1cccc(NC(=O)C2CCCN(S(=O)(=O)c3c(C)noc3/C=C/N(C)C)C2)c1C (stereo not drawn)	inactive: -11.8%	–

Compound	activity change, negative = inhibition	Potency
OC(COc1cccc2ccccc12)CN1CCN(c2ccc(Cl)cc2)CC1 (stereo not drawn)	–	inconclusive: 14.1 µM [inhibitor, partial curve, poor fit]
NC(=O)c1ccccc1NC(=S)NC(=O)CCc1ccccc1	inactive: -7.09%	–
Cc1cc2nc3c(=O)n(C)c(=O)n(C)c3nc2cc1N=CN(C)C	inactive: 9.89%	–
CCOC(=O)c1c(NC(=O)COC(=O)c2ccc(NC(=O)CC#N)cc2)sc(C(=O)NC)c1C	–	inconclusive: 2.24 µM [inhibitor, partial curve, poor fit]
Cc1ccc2c(c1)c1c3n2CC(=C2C(=O)OC(C)(C)OC2=O)NC3CCC1 (stereo not drawn)	–	inconclusive: 50.1 µM [inhibitor, partial curve, poor fit]
CN(C)S(=O)(=O)c1cc(NC(=O)c2cc(=O)c3ccccc3o2)ccc1Cl	–	inconclusive: 28.2 µM [inhibitor, partial curve, poor fit]
COc1cc(/C=C(\C#N)c2[nH]nc(N)c2C#N)cc(OC)c1O	–	inconclusive: 39.8 µM [inhibitor, full curve]
Clc1cccc(/C=N/Nc2nnc(Cl)c3ccccc23)c1	–	inconclusive: 0.158 µM [inhibitor, full curve]
CCCCn1nnc(N(C(=O)c2cccs2)C(=O)c2cccs2)n1	–	inconclusive: 79.4 µM [inhibitor, partial curve, poor fit]
Nc1c2c(nc3ccccc13)CCCC2	–	inconclusive: 28.2 µM [inhibitor, partial curve, poor fit]
COc1ccc(CNC(=O)Nc2cn(CC(C)C)c(=O)c3ccccc23)c(OC)c1	–	inconclusive: 17.8 µM [inhibitor, partial curve, poor fit]
O=C1/C(=C/c2cccnc2)Sc2ccccc21	inactive: 4.91%	–
CC(=O)OCCCNc1cc(Sc2ccc(Cl)cc2)c2nonc2c1[N+](=O)[O-]	–	inconclusive: 2.51 µM [inhibitor, partial curve, poor fit]
Oc1ccc(/C=N/Nc2ccc(Cl)nn2)c(O)c1O	–	inconclusive: 11.2 µM [inhibitor, partial curve, poor fit]
Cc1nc2ccc(-c3nc4ccccc4[nH]3)cc2[nH]1	inactive: -6.64%	–
COc1ccc(S(=O)(=O)Nc2cccc3cccnc23)c(N)c1	–	inconclusive: 35.5 µM [inhibitor, partial curve, poor fit]
CC(=O)c1nnn(-c2nc(C#N)nc(N3CCOCC3)n2)c1C	–	inconclusive: 100 µM [inhibitor, single point]
COc1ccccc1C1c2ccc3ccccc3c2Oc2ncn(CCN(C)C)c(=N)c21 (stereo not drawn)	inactive: -12.9%	–
c1csc(CNc2ncnc3ccc(-c4ccc5c(c4)OCO5)cc23)c1	–	inconclusive: 17.8 µM [inhibitor, partial curve, poor fit]
CCn1c(=O)c(C(=O)NNS(=O)(=O)c2ccc(Br)cc2)c(O)c2ccccc21	–	inconclusive: 50.1 µM [inhibitor, partial curve]
COC(=O)c1cc(OC)c(OC)cc1NC(=O)CSc1ccccc1	–	inconclusive: 79.4 µM [inhibitor, partial curve, poor fit]
